# From patent publication US20100209345A1, “Fluorinated Ligands for Targeting Peripheral Benzodiazepine Receptors” (Australian Nuclear Science & Technology Organisation, priority 2006, published 2010)
# The source gives many values for each of these; only a part stands here.
# Assay: Biodistribution of 18F-labelled tracers in rats
# Type: in vivo
# Conditions: corrected for decay of 18F
# Experimental: [^18F]Fluoride, in the form of H^18F, was produced by the ^18O(p,n)^18F nuclear reaction by bombardment of ^18O-enriched water target. The aqueous [^18F]fluoride solution was added to a 2.5-mL wheaton vial containing dry acetonitrile (1 mL), Kryptofix 2.2.2 (5 mg, 13.3 μmol) and potassium carbonate (2 mg, 14.5 μmol). The solvent was evaporated under a stream of nitrogen at 90° C. with a reducing vacuum. This azeotropic drying was repeated twice by further addition of acetonitrile (2×1 mL). The tosylate precursor 2-(2-(4-(2-tosylethoxy)phenyl)-6-chloroimidazo[1,2-a]pyridin-3-yl)-N,N-diethylacetamide (2 mg, 3.6 μmol) was dissolved in acetonitrile (1 ml) and added to the dried K222.K2CO3.KF complex. Stirring and heating at 90° C. continued for 10 to 15 mins before the reaction mixture was diluted with mobile phase and purified by reverse phase HPLC on an Alltech Alltima, C18, 10μ, 250×22 mm column eluting at 10 mLs/min with 45% acetonitrile, 55% water with 0.1% TFA.
# The biodistribution of PBR132* was undertaken in SD rats and analysis up to 4 h p.i. in the brain and peripheral tissues was performed. The specificity and selectivity of the tracer were assessed by pre-treatment with PBR and Central benzodiazepine receptor (CBR) specific ligands (1 mg/kg) 5 min prior to injection of PBR132*.
# The biodistribution of PBR 147* was performed in SD rats and brain and peripheral tissues were analysised at 15, 30 min, 1, and 4 h p.i. The specificity and selectivity of the tracer was assessed by pre-treatment of the animals with the PBR ligands PK11195 and Ro 5-4864 and with Flumazenil for CBR at 1 mg/kg 5 min prior to injection of PBR 147*
# The biodistribution of PBR102* and PBR111* were performed in SD rats and brain and peripheral tissues analysed at 15, 30 min, 1, and 4 h p.i. The specificity and selectivity of the tracers were assessed by pre-treatment with the PBR ligands PK11195 and Ro 5-4864 and with Flumazenil for CBR at 1 mg/kg 5 min prior to injection of the corresponding tracers.
# The specificity and selectivity of the tracers were assessed by pre-treatment with the PBR ligands PK11195 and Ro 5-4864 and with Flumazenil for CBR at 1 mg/kg 5 min prior to injection of the corresponding tracers.
compound,measurement,setting,value
"CCN(CC)C(=O)Cc1c(-c2ccc(OCCF)cc2)nc2ccc(Cl)cn12 [PBR102, 2-(2-(4-(2-fluoroethoxy)phenyl)-6-chloroimidazo[1,2-a]pyridin-3-yl)-N,N-diethylacetamide]",Biodistribution: Adrenals,15 min,6.66 ± 1.31 % ID/g
same,Biodistribution: Bladder,15 min,0.49 ± 0.10 % ID/g
same,Biodistribution: Blood,15 min,0.20 ± 0.04 % ID/g
same,Biodistribution: Brain,15 min,0.20 ± 0.01 % ID/g
same,Biodistribution: GIT,15 min,0.67 ± 0.06 % ID/g
same,Biodistribution: Kidney,15 min,3.26 ± 0.27 % ID/g
same,Biodistribution: Liver,15 min,0.63 ± 0.15 % ID/g
same,Biodistribution: Muscle,15 min,0.41 ± 0.02 % ID/g
same,Biodistribution: Olfactory bulbs,15 min,0.55 ± 0.07 % ID/g
same,Biodistribution: Pancreas,15 min,1.41 ± 0.09 % ID/g
same,Biodistribution: Spleen,15 min,4.48 ± 0.52 % ID/g
same,Biodistribution: Stomach,15 min,0.66 ± 0.15 % ID/g
same,Biodistribution: Testes,15 min,0.17 ± 0.01 % ID/g
same,Biodistribution: Thymus,15 min,0.55 ± 0.13 % ID/g
same,Biodistribution: Thyroid,15 min,6.28 ± 1.36 % ID/g
same,Biodistribution: Adrenals,30 min,7.92 ± 1.70 % ID/g
same,Biodistribution: Bladder,30 min,0.55 ± 0.10 % ID/g
same,Biodistribution: Blood,30 min,0.17 ± 0.02 % ID/g
same,Biodistribution: Brain,30 min,0.16 ± 0.02 % ID/g
same,Biodistribution: GIT,30 min,0.86 ± 0.13 % ID/g
same,Biodistribution: Kidney,30 min,3.25 ± 0.50 % ID/g
same,Biodistribution: Liver,30 min,0.52 ± 0.14 % ID/g
same,Biodistribution: Muscle,30 min,0.38 ± 0.03 % ID/g
same,Biodistribution: Olfactory bulbs,30 min,0.35 ± 0.01 % ID/g
same,Biodistribution: Pancreas,30 min,1.13 ± 0.26 % ID/g
same,Biodistribution: Spleen,30 min,3.88 ± 0.44 % ID/g
same,Biodistribution: Stomach,30 min,0.57 ± 0.12 % ID/g
same,Biodistribution: Testes,30 min,0.23 ± 0.03 % ID/g
same,Biodistribution: Thymus,30 min,0.65 ± 0.07 % ID/g
same,Biodistribution: Thyroid,30 min,8.77 ± 2.27 % ID/g
same,Biodistribution: Adrenals,60 min,7.31 ± 1.14 % ID/g
same,Biodistribution: Bladder,60 min,0.52 ± 0.08 % ID/g
same,Biodistribution: Blood,60 min,0.18 ± 0.01 % ID/g
same,Biodistribution: Brain,60 min,0.17 ± 0.01 % ID/g
same,Biodistribution: GIT,60 min,0.94 ± 0.05 % ID/g
same,Biodistribution: Kidney,60 min,2.72 ± 0.23 % ID/g
same,Biodistribution: Liver,60 min,0.35 ± 0.01 % ID/g
same,Biodistribution: Muscle,60 min,0.34 ± 0.04 % ID/g
same,Biodistribution: Olfactory bulbs,60 min,0.44 ± 0.02 % ID/g
same,Biodistribution: Pancreas,60 min,0.75 ± 0.11 % ID/g
same,Biodistribution: Spleen,60 min,3.42 ± 0.19 % ID/g
same,Biodistribution: Stomach,60 min,0.45 ± 0.08 % ID/g
same,Biodistribution: Testes,60 min,0.31 ± 0.03 % ID/g
same,Biodistribution: Thymus,60 min,0.77 ± 0.10 % ID/g
same,Biodistribution: Thyroid,60 min,8.24 ± 0.99 % ID/g
same,Biodistribution: Adrenals,4 hours,7.14 ± 1.04 % ID/g
same,Biodistribution: Bladder,4 hours,0.90 ± 0.07 % ID/g
same,Biodistribution: Blood,4 hours,0.21 ± 0.01 % ID/g
same,Biodistribution: Brain,4 hours,0.19 ± 0.01 % ID/g
same,Biodistribution: GIT,4 hours,1.17 ± 0.17 % ID/g
same,Biodistribution: Kidney,4 hours,1.35 ± 0.11 % ID/g
same,Biodistribution: Liver,4 hours,0.29 ± 0.02 % ID/g
same,Biodistribution: Muscle,4 hours,0.23 ± 0.03 % ID/g
same,Biodistribution: Olfactory bulbs,4 hours,0.40 ± 0.07 % ID/g
same,Biodistribution: Pancreas,4 hours,0.40 ± 0.06 % ID/g
same,Biodistribution: Spleen,4 hours,1.92 ± 0.23 % ID/g
same,Biodistribution: Stomach,4 hours,0.41 ± 0.12 % ID/g
same,Biodistribution: Testes,4 hours,0.42 ± 0.01 % ID/g
same,Biodistribution: Thymus,4 hours,0.98 ± 0.18 % ID/g
same,Biodistribution: Thyroid,4 hours,5.75 ± 0.89 % ID/g
